The values below come from PMC4151078, “Visualization of the physical and functional interaction between hMYH and hRad9 by Dronpa bimolecular fluorescence complementation” (BMC Molecular Biology, 2014).

These are yes or no findings as the source states them, for the method shown. In cells and extracts the contact can be indirect. Some results given as binding are weak or reduced against the parent protein; the word gives no strength. For part of these data: Tags and fused reporters may be left off the sequences shown.

Experiment [1] addresses T1, hMYH-ΔC-LDN (amino acids 1-487 fused to the Dronpa N-terminal fragment) (human) (UniProt Q9UIF7).
T1 sequence: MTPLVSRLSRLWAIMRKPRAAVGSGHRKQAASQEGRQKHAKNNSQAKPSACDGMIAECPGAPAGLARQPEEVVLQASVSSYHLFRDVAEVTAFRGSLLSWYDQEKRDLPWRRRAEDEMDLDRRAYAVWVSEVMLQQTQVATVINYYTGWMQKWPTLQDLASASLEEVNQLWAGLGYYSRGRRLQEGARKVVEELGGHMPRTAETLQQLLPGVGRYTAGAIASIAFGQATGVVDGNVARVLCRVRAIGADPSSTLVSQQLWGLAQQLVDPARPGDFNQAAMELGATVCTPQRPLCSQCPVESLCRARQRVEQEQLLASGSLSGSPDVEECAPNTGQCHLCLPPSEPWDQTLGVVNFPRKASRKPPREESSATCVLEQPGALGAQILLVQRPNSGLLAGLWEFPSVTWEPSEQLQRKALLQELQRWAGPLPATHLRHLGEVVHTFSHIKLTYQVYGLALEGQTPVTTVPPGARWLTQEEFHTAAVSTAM
The experiment in a line: split reporter; Dronpa-BiFC in HEK293 cells co-transfected for 24 h, fixed; confocal fluorescence microscopy, 488-nm excitation and 530-nm emission.

The target of experiment [2] is T2, hMYH-LDN (full-length hMYH fused to the Dronpa N-terminal fragment) (human) (UniProt Q9UIF7).
T2 sequence: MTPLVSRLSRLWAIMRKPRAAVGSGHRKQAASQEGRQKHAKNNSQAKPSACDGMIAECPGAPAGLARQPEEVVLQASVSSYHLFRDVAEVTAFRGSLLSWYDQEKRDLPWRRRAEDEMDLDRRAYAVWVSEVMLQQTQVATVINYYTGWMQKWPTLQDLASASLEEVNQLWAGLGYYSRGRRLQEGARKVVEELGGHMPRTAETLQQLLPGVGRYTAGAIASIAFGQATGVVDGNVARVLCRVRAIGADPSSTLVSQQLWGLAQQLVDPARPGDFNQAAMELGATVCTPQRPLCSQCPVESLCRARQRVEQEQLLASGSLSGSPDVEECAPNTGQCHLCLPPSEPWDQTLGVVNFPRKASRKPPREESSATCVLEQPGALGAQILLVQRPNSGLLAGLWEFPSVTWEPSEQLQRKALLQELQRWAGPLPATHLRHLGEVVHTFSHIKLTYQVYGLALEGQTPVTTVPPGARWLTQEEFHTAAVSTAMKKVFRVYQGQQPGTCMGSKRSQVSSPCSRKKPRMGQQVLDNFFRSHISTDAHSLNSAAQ
Described as above.

Experiment [3] addresses T3, hMYH-ΔNC-LDN (amino acids 75-487 fused to the Dronpa N-terminal fragment) (human) (UniProt Q9UIF7).
T3 sequence: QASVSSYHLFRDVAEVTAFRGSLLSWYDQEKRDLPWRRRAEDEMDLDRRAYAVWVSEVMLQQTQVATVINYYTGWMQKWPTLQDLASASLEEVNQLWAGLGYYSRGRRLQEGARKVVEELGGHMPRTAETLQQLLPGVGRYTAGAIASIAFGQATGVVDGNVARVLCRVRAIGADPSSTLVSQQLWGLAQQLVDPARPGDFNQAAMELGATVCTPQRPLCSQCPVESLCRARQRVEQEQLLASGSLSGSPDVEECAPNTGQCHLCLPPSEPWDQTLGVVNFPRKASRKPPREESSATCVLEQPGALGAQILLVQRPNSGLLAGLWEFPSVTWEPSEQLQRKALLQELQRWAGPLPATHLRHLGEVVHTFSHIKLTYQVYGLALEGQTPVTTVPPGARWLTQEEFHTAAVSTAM
The experiment is described as above.

The target of experiment [4] is T4, hMYH-ΔN-LDN (amino acids 75-547 fused to the Dronpa N-terminal fragment) (human) (UniProt Q9UIF7).
T4 sequence: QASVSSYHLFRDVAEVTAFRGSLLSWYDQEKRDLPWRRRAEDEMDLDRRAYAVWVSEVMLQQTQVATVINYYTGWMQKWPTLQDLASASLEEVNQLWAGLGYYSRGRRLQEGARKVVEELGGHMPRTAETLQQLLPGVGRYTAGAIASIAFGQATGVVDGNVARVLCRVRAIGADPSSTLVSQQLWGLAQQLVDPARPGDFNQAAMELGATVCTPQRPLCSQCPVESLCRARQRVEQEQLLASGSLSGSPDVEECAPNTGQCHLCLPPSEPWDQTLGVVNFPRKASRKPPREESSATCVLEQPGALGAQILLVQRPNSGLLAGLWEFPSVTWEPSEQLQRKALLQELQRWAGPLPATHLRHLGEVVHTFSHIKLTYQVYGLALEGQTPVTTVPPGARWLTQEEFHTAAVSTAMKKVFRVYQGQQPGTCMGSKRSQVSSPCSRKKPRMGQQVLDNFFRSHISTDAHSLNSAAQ
Described as above.

For experiment [5], the target named is T5, ECFP/hMYH (human) (UniProt Q9UIF7).
T5 sequence: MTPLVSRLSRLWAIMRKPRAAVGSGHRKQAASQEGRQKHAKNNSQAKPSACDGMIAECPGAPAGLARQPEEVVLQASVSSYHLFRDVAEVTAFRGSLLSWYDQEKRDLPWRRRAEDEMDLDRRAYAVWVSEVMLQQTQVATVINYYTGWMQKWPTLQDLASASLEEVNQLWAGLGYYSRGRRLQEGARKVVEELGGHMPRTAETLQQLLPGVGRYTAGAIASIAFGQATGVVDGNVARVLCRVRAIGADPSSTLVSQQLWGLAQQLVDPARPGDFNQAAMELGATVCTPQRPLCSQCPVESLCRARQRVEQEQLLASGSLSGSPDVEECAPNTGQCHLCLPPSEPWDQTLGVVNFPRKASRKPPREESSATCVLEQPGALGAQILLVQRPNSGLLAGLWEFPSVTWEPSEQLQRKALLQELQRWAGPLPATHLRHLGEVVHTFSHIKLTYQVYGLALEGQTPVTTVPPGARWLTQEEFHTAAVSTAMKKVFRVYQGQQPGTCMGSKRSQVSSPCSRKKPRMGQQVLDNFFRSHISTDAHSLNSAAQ
Kind of experiment: FRET or BRET; HEK293 cells co-transfected with ECFP/hMYH and EYFP/hRad9, 24 h, with or without HU, fixed; confocal fluorescence microscopy, FRET at 440/535 nm. On the technique in general: Bioluminescence resonance energy transfer reports proximity on the nanometre scale.

The target of experiment [6] is T6, endogenous hRad9 (human (endogenous in HEK293)) (UniProt Q99638).
T6 sequence: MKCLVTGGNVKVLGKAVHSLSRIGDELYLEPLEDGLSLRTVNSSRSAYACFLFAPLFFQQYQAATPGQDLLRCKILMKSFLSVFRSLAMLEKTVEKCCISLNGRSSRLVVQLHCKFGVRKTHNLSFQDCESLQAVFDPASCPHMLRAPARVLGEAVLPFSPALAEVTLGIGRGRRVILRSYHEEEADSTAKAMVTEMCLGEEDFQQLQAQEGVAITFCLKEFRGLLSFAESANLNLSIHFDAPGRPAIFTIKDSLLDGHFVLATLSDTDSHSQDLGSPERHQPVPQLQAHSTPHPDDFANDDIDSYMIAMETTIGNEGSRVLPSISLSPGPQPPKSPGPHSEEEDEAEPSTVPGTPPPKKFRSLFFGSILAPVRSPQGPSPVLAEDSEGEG
The experiment in a line: co-IP; total lysates of HEK293 cells immunoprecipitated with hRad9 antibody; cells transfected with siHus1 or siGFP (Figure 1C), or treated or not with DNase for 20 min at 37°C (Additional file 1).

B1: DCL-hRad9 (Dronpa C-terminal fragment fused to hRad9) (protein, UniProt Q99638 1-391)
chain: MKCLVTGGNVKVLGKAVHSLSRIGDELYLEPLEDGLSLRTVNSSRSAYACFLFAPLFFQQYQAATPGQDLLRCKILMKSFLSVFRSLAMLEKTVEKCCISLNGRSSRLVVQLHCKFGVRKTHNLSFQDCESLQAVFDPASCPHMLRAPARVLGEAVLPFSPALAEVTLGIGRGRRVILRSYHEEEADSTAKAMVTEMCLGEEDFQQLQAQEGVAITFCLKEFRGLLSFAESANLNLSIHFDAPGRPAIFTIKDSLLDGHFVLATLSDTDSHSQDLGSPERHQPVPQLQAHSTPHPDDFANDDIDSYMIAMETTIGNEGSRVLPSISLSPGPQPPKSPGPHSEEEDEAEPSTVPGTPPPKKFRSLFFGSILAPVRSPQGPSPVLAEDSEGEG
Consider B1, for which the binding result in experiment [1] was “binds”; in experiment [2], “binds”; in experiment [3], “no binding”; in experiment [4] it was “no binding”.

B2: EYFP/hRad9 (protein, UniProt Q99638 1-391)
chain: MKCLVTGGNVKVLGKAVHSLSRIGDELYLEPLEDGLSLRTVNSSRSAYACFLFAPLFFQQYQAATPGQDLLRCKILMKSFLSVFRSLAMLEKTVEKCCISLNGRSSRLVVQLHCKFGVRKTHNLSFQDCESLQAVFDPASCPHMLRAPARVLGEAVLPFSPALAEVTLGIGRGRRVILRSYHEEEADSTAKAMVTEMCLGEEDFQQLQAQEGVAITFCLKEFRGLLSFAESANLNLSIHFDAPGRPAIFTIKDSLLDGHFVLATLSDTDSHSQDLGSPERHQPVPQLQAHSTPHPDDFANDDIDSYMIAMETTIGNEGSRVLPSISLSPGPQPPKSPGPHSEEEDEAEPSTVPGTPPPKKFRSLFFGSILAPVRSPQGPSPVLAEDSEGEG
Turning to B2, the binding result in experiment [5] is given as “binds”.

B3: endogenous hMYH (protein, UniProt Q9UIF7 1-546)
chain: MTPLVSRLSRLWAIMRKPRAAVGSGHRKQAASQEGRQKHAKNNSQAKPSACDGMIAECPGAPAGLARQPEEVVLQASVSSYHLFRDVAEVTAFRGSLLSWYDQEKRDLPWRRRAEDEMDLDRRAYAVWVSEVMLQQTQVATVINYYTGWMQKWPTLQDLASASLEEVNQLWAGLGYYSRGRRLQEGARKVVEELGGHMPRTAETLQQLLPGVGRYTAGAIASIAFGQATGVVDGNVARVLCRVRAIGADPSSTLVSQQLWGLAQQLVDPARPGDFNQAAMELGATVCTPQRPLCSQCPVESLCRARQRVEQEQLLASGSLSGSPDVEECAPNTGQCHLCLPPSEPWDQTLGVVNFPRKASRKPPREESSATCVLEQPGALGAQILLVQRPNSGLLAGLWEFPSVTWEPSEQLQRKALLQELQRWAGPLPATHLRHLGEVVHTFSHIKLTYQVYGLALEGQTPVTTVPPGARWLTQEEFHTAAVSTAMKKVFRVYQGQQPGTCMGSKRSQVSSPCSRKKPRMGQQVLDNFFRSHISTDAHSLNSAAQ
Regarding B3, in experiment [6], the binding entry is on record as “binds”.
